No constants are given. Whether binding was seen depends on the method and setting. For some of these results: In cells and extracts the contact can be indirect. Some results given as binding are weak or reduced against the parent protein; the word gives no strength. For some of these results: Tags and fused reporters may be left off the sequences shown.
T1: FLAG-CEP131 (human) (UniProt Q9UPN4)
T1 sequence: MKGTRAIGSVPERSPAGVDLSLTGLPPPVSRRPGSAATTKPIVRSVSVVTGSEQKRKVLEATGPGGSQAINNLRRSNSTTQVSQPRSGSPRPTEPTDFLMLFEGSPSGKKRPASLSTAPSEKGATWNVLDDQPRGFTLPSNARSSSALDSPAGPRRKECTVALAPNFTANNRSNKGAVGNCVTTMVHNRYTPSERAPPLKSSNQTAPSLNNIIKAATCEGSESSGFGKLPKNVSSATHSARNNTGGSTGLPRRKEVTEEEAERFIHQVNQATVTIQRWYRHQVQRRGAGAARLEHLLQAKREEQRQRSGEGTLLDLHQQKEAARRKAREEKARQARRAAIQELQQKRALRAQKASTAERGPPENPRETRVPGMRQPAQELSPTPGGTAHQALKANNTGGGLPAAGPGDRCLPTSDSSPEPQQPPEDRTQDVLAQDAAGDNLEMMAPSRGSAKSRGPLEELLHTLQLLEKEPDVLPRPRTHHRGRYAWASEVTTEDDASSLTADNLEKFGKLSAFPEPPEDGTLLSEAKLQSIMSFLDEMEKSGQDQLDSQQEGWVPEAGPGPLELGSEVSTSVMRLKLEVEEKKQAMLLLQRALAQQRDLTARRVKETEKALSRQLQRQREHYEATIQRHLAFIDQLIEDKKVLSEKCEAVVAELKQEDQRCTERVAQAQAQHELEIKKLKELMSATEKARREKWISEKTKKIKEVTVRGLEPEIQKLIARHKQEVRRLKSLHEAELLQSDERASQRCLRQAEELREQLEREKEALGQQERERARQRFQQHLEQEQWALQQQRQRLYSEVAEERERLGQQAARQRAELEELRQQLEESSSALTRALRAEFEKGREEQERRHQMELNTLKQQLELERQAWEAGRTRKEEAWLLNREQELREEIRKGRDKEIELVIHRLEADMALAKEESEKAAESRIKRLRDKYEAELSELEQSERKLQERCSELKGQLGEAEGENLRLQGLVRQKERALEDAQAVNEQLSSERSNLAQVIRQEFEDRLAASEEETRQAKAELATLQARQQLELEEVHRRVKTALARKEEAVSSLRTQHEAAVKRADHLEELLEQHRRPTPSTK

Sequences of proteins named here, by UniProt entry; tags and fusion partners are left off.
UniProt O43303: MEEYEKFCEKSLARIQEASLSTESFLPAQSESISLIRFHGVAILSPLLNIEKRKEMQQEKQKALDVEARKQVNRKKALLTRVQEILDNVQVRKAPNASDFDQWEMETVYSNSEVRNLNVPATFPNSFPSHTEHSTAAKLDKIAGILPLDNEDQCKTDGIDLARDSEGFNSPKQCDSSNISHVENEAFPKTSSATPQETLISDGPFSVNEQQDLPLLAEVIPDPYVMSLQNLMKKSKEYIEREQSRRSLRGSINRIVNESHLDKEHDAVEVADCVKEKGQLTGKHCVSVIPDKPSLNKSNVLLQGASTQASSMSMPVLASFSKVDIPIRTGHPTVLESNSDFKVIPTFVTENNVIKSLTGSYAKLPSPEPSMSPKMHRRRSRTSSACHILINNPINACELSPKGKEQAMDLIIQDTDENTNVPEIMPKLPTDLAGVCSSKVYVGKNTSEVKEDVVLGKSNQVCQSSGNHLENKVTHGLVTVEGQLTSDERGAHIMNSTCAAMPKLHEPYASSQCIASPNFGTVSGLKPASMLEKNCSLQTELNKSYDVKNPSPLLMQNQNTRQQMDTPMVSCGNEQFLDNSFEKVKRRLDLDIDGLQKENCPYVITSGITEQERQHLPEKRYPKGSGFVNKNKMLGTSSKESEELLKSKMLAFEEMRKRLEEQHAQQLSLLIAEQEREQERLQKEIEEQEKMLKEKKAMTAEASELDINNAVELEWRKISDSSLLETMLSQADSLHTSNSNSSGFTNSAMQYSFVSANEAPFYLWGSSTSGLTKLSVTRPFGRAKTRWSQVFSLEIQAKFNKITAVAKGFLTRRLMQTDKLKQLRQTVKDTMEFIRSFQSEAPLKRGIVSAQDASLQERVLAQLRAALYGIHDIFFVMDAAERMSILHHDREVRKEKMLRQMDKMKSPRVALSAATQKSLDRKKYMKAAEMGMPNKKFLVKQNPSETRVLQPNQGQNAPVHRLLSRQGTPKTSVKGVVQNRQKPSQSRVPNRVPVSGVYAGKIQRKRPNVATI
UniProt O14744: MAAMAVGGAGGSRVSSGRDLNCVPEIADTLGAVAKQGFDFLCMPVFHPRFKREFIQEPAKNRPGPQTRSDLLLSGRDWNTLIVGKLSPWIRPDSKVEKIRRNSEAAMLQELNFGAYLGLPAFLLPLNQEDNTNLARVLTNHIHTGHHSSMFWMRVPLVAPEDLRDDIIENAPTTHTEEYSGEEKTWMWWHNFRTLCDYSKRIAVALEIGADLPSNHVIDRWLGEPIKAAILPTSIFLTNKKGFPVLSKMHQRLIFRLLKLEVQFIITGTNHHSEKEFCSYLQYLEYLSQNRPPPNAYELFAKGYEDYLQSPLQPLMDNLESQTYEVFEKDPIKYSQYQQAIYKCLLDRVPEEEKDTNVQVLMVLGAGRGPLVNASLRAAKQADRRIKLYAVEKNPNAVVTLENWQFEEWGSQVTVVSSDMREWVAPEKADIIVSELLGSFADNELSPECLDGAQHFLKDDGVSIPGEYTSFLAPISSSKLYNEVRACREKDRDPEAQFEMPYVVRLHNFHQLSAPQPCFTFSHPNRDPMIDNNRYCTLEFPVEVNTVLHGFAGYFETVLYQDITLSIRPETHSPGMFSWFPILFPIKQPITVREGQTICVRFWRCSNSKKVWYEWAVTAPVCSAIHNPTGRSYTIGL
UniProt Q15154: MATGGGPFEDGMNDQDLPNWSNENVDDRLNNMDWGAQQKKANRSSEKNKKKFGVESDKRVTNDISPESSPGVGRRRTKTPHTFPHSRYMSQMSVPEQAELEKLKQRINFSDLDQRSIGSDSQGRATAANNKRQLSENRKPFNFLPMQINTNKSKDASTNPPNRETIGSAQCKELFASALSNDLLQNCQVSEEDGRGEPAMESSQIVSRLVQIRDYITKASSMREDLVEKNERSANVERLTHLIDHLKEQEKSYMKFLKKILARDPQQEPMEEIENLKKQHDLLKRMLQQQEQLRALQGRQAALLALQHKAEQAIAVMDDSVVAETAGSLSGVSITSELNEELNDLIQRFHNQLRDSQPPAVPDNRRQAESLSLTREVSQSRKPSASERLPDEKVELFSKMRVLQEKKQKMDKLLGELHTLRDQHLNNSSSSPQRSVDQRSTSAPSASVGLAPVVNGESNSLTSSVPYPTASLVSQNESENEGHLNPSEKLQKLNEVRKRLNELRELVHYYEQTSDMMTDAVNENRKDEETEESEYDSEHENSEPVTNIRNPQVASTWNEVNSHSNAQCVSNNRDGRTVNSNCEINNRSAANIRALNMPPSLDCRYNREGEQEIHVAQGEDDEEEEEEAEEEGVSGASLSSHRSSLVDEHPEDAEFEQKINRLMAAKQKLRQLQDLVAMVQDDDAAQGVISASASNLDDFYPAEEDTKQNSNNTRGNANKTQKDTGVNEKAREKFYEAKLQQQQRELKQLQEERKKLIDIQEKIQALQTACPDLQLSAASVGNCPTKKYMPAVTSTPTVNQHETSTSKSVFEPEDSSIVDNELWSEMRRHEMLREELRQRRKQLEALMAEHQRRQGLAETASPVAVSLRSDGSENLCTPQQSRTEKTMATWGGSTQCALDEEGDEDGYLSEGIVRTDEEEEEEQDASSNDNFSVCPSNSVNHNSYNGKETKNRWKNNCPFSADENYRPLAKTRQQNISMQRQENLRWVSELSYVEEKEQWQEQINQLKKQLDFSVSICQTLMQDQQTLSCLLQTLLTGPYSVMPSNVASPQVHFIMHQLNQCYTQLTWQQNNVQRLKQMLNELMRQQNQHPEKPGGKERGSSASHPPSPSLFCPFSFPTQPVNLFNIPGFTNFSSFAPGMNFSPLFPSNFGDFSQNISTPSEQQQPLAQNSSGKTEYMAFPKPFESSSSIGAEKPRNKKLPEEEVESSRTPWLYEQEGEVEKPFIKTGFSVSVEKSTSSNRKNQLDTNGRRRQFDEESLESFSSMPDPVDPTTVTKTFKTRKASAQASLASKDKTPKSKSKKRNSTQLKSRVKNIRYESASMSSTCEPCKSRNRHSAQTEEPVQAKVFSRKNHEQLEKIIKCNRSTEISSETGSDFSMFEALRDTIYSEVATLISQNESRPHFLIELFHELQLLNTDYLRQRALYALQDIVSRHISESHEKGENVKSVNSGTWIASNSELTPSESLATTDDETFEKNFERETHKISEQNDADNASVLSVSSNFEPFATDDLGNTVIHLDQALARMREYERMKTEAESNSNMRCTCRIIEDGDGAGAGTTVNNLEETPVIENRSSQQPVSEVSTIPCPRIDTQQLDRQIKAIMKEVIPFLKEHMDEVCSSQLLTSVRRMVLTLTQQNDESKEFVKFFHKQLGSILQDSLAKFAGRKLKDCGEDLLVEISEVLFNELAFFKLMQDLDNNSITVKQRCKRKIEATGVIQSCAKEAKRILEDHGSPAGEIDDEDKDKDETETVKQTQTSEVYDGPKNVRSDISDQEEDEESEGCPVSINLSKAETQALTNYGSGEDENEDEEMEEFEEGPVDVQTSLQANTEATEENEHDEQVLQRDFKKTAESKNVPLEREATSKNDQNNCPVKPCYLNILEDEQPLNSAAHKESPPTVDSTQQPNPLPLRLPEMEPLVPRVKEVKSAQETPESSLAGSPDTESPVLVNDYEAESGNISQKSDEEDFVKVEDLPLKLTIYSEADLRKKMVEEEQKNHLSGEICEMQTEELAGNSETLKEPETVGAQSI

T2: GST-CEP131, full length (human) (UniProt Q9UPN4)
T2 sequence: T1 sequence

B1: His-tagged USP9X/M (domain or fragment, UniProt Q93008 611-1553)
chain: ALVTLVAENLATYMESMRLYARDHEDYDPQTVRLGSRYSHVQEVQERLNFLRFLLKDGQLWLCAPQAKQIWKCLAENAVYLCDREACFKWYSKLMGDEPDLDPDINKDFFESNVLQLDPSLLTENGMKCFERFFKAVNCREGKLVAKRRAYMMDDLELIGLDYLWRVVIQSNDDIASRAIDLLKEIYTNLGPRLQVNQVVIHEDFIQSCFDRLKASYDTLCVLDGDKDSVNCARQEAVRMVRVLTVLREYINECDSDYHEERTILPMSRAFRGKHLSFVVRFPNQGRQVDDLEVWSHTNDTIGSVRRCILNRIKANVAHTKIELFVGGELIDPADDRKLIGQLNLKDKSLITAKLTQISSNMPSSPDSSSDSSTGSPGNHGNHYSDGPNPEVESCLPGVIMSLHPRYISFLWQVADLGSSLNMPPLRDGARVLMKLMPPDSTTIEKLRAICLDHAKLGESSLSPSLDSLFFGPSASQVLYLTEVVYALLMPAGAPLADDSSDFQFHFLKSGGLPLVLSMLTRNNFLPNADMETRRGAYLNALKIAKLLLTAIGYGHVRAVAEACQPGVEGVNPMTQINQVTHDQAVVLQSALQSIPNPSSECMLRNVSVRLAQQISDEASRYMPDICVIRAIQKIIWASGCGSLQLVFSPNEEITKIYEKTNAGNEPDLEDEQVCCEALEVMTLCFALIPTALDALSKEKAWQTFIIDLLLHCHSKTVRQVAQEQFFLMCTRCCMGHRPLLFFITLLFTVLGSTARERAKHSGDYFTLLRHLLNYAYNSNINVPNAEVLLNNEIDWLKRIRDDVKRTGETGIEETILEGHLGVTKELLAFQTSEKKFHIGCEKGGANLIKELIDDFIFPASNVYLQYMRNGELPAEQAIPVCGSPPTINAGFELLVALAVGCVRNLKQIVDSLTEMYYIGTAITTCEALTEWEYLPPVGPRPP
B2: USP33, deubiquitinase, endogenous (enzyme, UniProt Q8TEY7 1-942)
chain: MTGSNSHITILTLKVLPHFESLGKQEKIPNKMSAFRNHCPHLDSVGEITKEDLIQKSLGTCQDCKVQGPNLWACLENRCSYVGCGESQVDHSTIHSQETKHYLTVNLTTLRVWCYACSKEVFLDRKLGTQPSLPHVRQPHQIQENSVQDFKIPSNTTLKTPLVAVFDDLDIEADEEDELRARGLTGLKNIGNTCYMNAALQALSNCPPLTQFFLDCGGLARTDKKPAICKSYLKLMTELWHKSRPGSVVPTTLFQGIKTVNPTFRGYSQQDAQEFLRCLMDLLHEELKEQVMEVEEDPQTITTEETMEEDKSQSDVDFQSCESCSNSDRAENENGSRCFSEDNNETTMLIQDDENNSEMSKDWQKEKMCNKINKVNSEGEFDKDRDSISETVDLNNQETVKVQIHSRASEYITDVHSNDLSTPQILPSNEGVNPRLSASPPKSGNLWPGLAPPHKKAQSASPKRKKQHKKYRSVISDIFDGTIISSVQCLTCDRVSVTLETFQDLSLPIPGKEDLAKLHSSSHPTSIVKAGSCGEAYAPQGWIAFFMEYVKRFVVSCVPSWFWGPVVTLQDCLAAFFARDELKGDNMYSCEKCKKLRNGVKFCKVQNFPEILCIHLKRFRHELMFSTKISTHVSFPLEGLDLQPFLAKDSPAQIVTYDLLSVICHHGTASSGHYIAYCRNNLNNLWYEFDDQSVTEVSESTVQNAEAYVLFYRKSSEEAQKERRRISNLLNIMEPSLLQFYISRQWLNKFKTFAEPGPISNNDFLCIHGGVPPRKAGYIEDLVLMLPQNIWDNLYSRYGGGPAVNHLYICHTCQIEAEKIEKRRKTELEIFIRLNRAFQKEDSPATFYCISMQWFREWESFVKGKDGDPPGPIDNTKIAVTKCGNVMLRQGADSGQISEETWNFLQSIYGGGPEVILRPPVVHVDPDILQAEEKIEVETRSL
B3: IPO5 (protein, UniProt O00410 1-1097)
chain: MAAAAAEQQQFYLLLGNLLSPDNVVRKQAEETYENIPGQSKITFLLQAIRNTTAAEEARQMAAVLLRRLLSSAFDEVYPALPSDVQTAIKSELLMIIQMETQSSMRKKVCDIAAELARNLIDEDGNNQWPEGLKFLFDSVSSQNVGLREAALHIFWNFPGIFGNQQQHYLDVIKRMLVQCMQDQEHPSIRTLSARATAAFILANEHNVALFKHFADLLPGFLQAVNDSCYQNDDSVLKSLVEIADTVPKYLRPHLEATLQLSLKLCGDTSLNNMQRQLALEVIVTLSETAAAMLRKHTNIVAQTIPQMLAMMVDLEEDEDWANADELEDDDFDSNAVAGESALDRMACGLGGKLVLPMIKEHIMQMLQNPDWKYRHAGLMALSAIGEGCHQQMEGILNEIVNFVLLFLQDPHPRVRYAACNAVGQMATDFAPGFQKKFHEKVIAALLQTMEDQGNQRVQAHAAAALINFTEDCPKSLLIPYLDNLVKHLHSIMVLKLQELIQKGTKLVLEQVVTSIASVADTAEEKFVPYYDLFMPSLKHIVENAVQKELRLLRGKTIECISLIGLAVGKEKFMQDASDVMQLLLKTQTDFNDMEDDDPQISYMISAWARMCKILGKEFQQYLPVVMGPLMKTASIKPEVALLDTQDMENMSDDDGWEFVNLGDQQSFGIKTAGLEEKSTACQMLVCYAKELKEGFVEYTEQVVKLMVPLLKFYFHDGVRVAAAESMPLLLECARVRGPEYLTQMWHFMCDALIKAIGTEPDSDVLSEIMHSFAKCIEVMGDGCLNNEHFEELGGILKAKLEEHFKNQELRQVKRQDEDYDEQVEESLQDEDDNDVYILTKVSDILHSIFSSYKEKVLPWFEQLLPLIVNLICPHRPWPDRQWGLCIFDDVIEHCSPASFKYAEYFLRPMLQYVCDNSPEVRQAAAYGLGVMAQYGGDNYRPFCTEALPLLVRVIQSADSKTKENVNATENCISAVGKIMKFKPDCVNVEEVLPHWLSWLPLHEDKEEAVQTFNYLCDLIESNHPIVLGPNNTNLPKIFSIIAEGEMHEAIKHEDPCAKRLANVVRQVQTSGGLWTECIAQLSPEQQAAIQELLNSA
B4: PPM1B (enzyme, UniProt O75688 1-479)
chain: MGAFLDKPKTEKHNAHGAGNGLRYGLSSMQGWRVEMEDAHTAVVGIPHGLEDWSFFAVYDGHAGSRVANYCSTHLLEHITTNEDFRAAGKSGSALELSVENVKNGIRTGFLKIDEYMRNFSDLRNGMDRSGSTAVGVMISPKHIYFINCGDSRAVLYRNGQVCFSTQDHKPCNPREKERIQNAGGSVMIQRVNGSLAVSRALGDYDYKCVDGKGPTEQLVSPEPEVYEILRAEEDEFIILACDGIWDVMSNEELCEYVKSRLEVSDDLENVCNWVVDTCLHKGSRDNMSIVLVCFSNAPKVSDEAVKKDSELDKHLESRVEEIMEKSGEEGMPDLAHVMRILSAENIPNLPPGGGLAGKRNVIEAVYSRLNPHRESDGASDEAEESGSQGKLVEALRQMRINHRGNYRQLLEEMLTSYRLAKVEGEESPAEPAATATSSNSDAGNPVTMQESHTESESGLAELDSSNEDAGTKMSGEKI

Key:
[1] = target: ubiquitin-specific peptidase 9, X-linked (USP9X), endogenous (human (endogenous in HeLa, MCF-7, HEK293T, U2OS)) (UniProt Q93008); assay: co-IP; validation of interactors identified by mass spectrometry (Supplementary Fig. 1a); cells and bait not given
[2] = target: T1, FLAG-CEP131 (human); assay: SEC; FLAG-CEP131 anti-FLAG affinity eluate from HeLa cells fractionated on Superose 6 gel filtration; fractions immunoblotted (Supplementary Fig. 1b)
[3] = target: T2, GST-CEP131, full length (human); assay: pull-down; GST-tagged CEP131 (full length or deletion mutants) purified from bacteria with His-tagged USP9X deletion mutants purified from Sf9 cells; which was held on beads is not stated; both purified
[4] = target: CP110, centrosomal protein, endogenous (human (endogenous in HeLa, MCF-7, HEK293T, U2OS)) (UniProt O43303); assay: co-IP; endogenous proteins; whole-cell lysates of HeLa, MCF-7, HEK293T and U2OS cells in NETN buffer (50 mM Tris-HCl pH 8.0, 150 mM NaCl, 0.2% Nonidet P-40, 2 mM EDTA); protein G magnetic beads; immunoblot; also U2OS cells synchronized by double-thymidine block and released (association detected primarily in S and G2 phases)

| Molecule | binding [1] | binding [2] | also measured |
| --- | --- | --- | --- |
| PRMT5 (from UniProt O14744 1-637) (enzyme) | binds |  |  |
| PCM1 (pericentriolar material 1), endogenous (from UniProt Q15154 1-2024) |  | binds |  |
| B1 |  |  | binding [3]: binds |
| B2 |  | no binding | binding [4]: binds |
| B3 | binds |  |  |
| B4 | binds |  |  |

From article PMC5380967
